# Results from the supplement of paper PMC12217912.
# The list shows a part of the results. Sequences were assembled here from the parent chain. Values near 0.05 are background.
# B1: TEV protease; numbered along this chain (parent)
# chain: MGESLFKGPRDYNPISSSICHLTNESDGHTTSLYGIGFGPFIITNKHLFRRNNGTLVVQSLHGVFKVKDTTTLQQHLVDGRDMIIIRMPKDFPPFPQKLKFREPQREERICLVTTNFQTKSMSSMVSDTSCTFPSGDGIFWKHWIQTKDGQCGSPLVSTRDGFIVGIHSASNFTNTNNYFTSVPKNFMELLTNQEAQQWVSGWRLNADSVLWGGHKVFMVKPEEPFQPVKEATQL
# Variants of: B1
# Test: raw area under fraction-flipped curve 0-4 h after induction (AUC4h, not background-subtracted), DNA-recorder readout of cleavage of the substrate (dimensionless); higher = more cleavage of the substrate by the protease variant
# Conditions: temperature: 34 °C; time window: 0-4 h after rhamnose induction
# Method: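 In vivo DNA recorder in E. coli TOP10(DE3) ΔrhaA at 34 °C. Each TEVp single-site mutant (parent TEVp 0) is paired with a single-site variant of the 7-mer TEVs (canonical ENLYFQ|S). The substrate sits between flexible linkers in a Bxb1-sfGFP-TEVs-SsrA fusion, so cleavage stabilises Bxb1 and speeds flipping of a recombination array, read by NGS. The value is the raw area under the fraction-flipped curve over 0-4 h after rhamnose induction (AUC4h), with ≥20 reads per time point. It is not background-subtracted; inactive controls average about 0.047.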
# 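Note: Bxb1 expression induced with 0.2% (w/v) L-rhamnose at OD600 near 0.5, cultures sampled hourly, flipped fraction per protease–substrate barcode pair counted by paired-end Illumina sequencing.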
Variant,area with substrate ENAYFQS,area with substrate ENCYFQS,area with substrate ENDYFQS,area with substrate ENHYFQS,area with substrate ENIYFQS,area with substrate ENMYFQS,area with substrate ENNYFQS,area with substrate ENSYFQS,area with substrate ENTYFQS,area with substrate ENVYFQS,area with substrate ENYYFQS,area with substrate ENEYFQS,area with substrate ENGYFQS,area with substrate ENKYFQS,area with substrate ENQYFQS,area with substrate ENRYFQS,area with substrate ENWYFQS,area with substrate ENPYFQS,area with substrate ENFYFQS
G35W,0.0651,0.049,0.052,0.0378,0.0477,0.0191,0.0413,0.0525,0.0591,0.0344,0.0503,,,,,,,,
I36F,0.0634,0.052,0.0581,0.0738,,,0.0623,0.0499,0.0629,0.0341,,0.0601,0.0673,0.0702,0.0581,0.0492,0.0344,,
I36Q,0.0599,,0.063,0.056,0.069,0.0476,,0.0726,0.0304,0.0482,0.051,,0.0556,0.05,0.0423,0.0525,,0.0479,
G37M,0.0731,0.045,0.0571,,,0.058,0.0529,,,,,0.0462,0.0549,,0.056,0.0523,0.0387,0.0571,0
G37V,0.0524,0.0663,0.0651,0.0535,0.0773,0.075,0.0811,0.0632,0.0594,0.0747,,0.0469,0.0566,,0.0581,0.0514,0.0665,,0.0546
F38G,0.0513,0.0595,0.0402,,,,,,0.0409,,,0.0545,,0.0395,0.0403,,,0.0455,
F38N,0.054,,0.0579,0.059,0.0503,0.0645,0.0452,0.056,0.0496,0.067,,0.0511,,,0.0559,,,0.0528,
F38T,0.054,0.0499,0.0602,0.0555,0.0907,,0.0631,0.0689,,0.0712,0.0647,0.0606,0.0549,0.059,0.0543,0.0525,0.0576,0.0663,0.0571
G39C,0.0315,,0.0473,0.0351,0.0437,0.0436,,0.0149,0.0622,,,0.0349,0.0441,0.0428,0.0459,0.046,,,0.0373
G39H,0.0393,0.0385,0.048,0.0587,,0.0534,0.0386,0.0528,0.0378,0.0428,0.0477,0.049,0.0404,0.0421,0.0554,0.0401,0.0292,0.0515,0.0503
G39N,0.0463,0.0477,0.0345,0.0408,,,0.0393,,0.022,0.0382,0.036,0.0352,0.0351,,0.0336,0.0568,,0.0619,0.0442
P40Y,0.0661,0.078,0.056,0.061,,,0.0688,0.0521,,0.0723,0.0639,0.0621,,0.0534,0.0488,0.0657,0.0602,0.0574,0.0604
F41T,0.0649,,,0.0519,,,,0.0645,0.0584,0.0776,0.0574,0.0584,,0.0595,0.0553,,0.0455,,
I42Q,0.0418,0.0507,0.0284,,0.0409,0.0414,0.0424,0.0427,,0.0436,0.0476,0.0438,,0.0494,0.0432,,0.0286,,0.046
I43F,0.0534,,0.0664,0.0606,0.0823,,0.0596,0.064,0.0539,0.0655,0.0715,0.0565,0.0933,0.0533,0.0557,0.0618,,,0.048
I43G,0.0512,0.0609,0.0553,0.0419,,,0.0553,,0.0306,,0.0619,0.0515,0.0445,0.0431,0.0446,0.0409,,0.0467,0.0559
I43W,0.0554,0.0528,0.0497,0.0596,,0.0363,0.0647,0.0515,0.0533,0.044,0.0379,0.0433,,0.0407,0.0378,0.053,,0.0401,
T44E,0.0272,,0.0473,0.0315,,0.0368,0.0447,0.057,,,0.0431,0.05,0.0463,,0.0289,0.0503,0.0375,0.0295,0.065
T44G,0.0461,0.0407,0.0848,,,0.0626,0.0667,0.0883,0.0617,0.0338,,0.0573,0.0201,0.0596,0.0383,0.0551,,0.0279,
T44H,0.0394,0.059,0.053,,,0.0458,0.0487,,0.0475,0.0466,,0.0589,0.0491,0.0504,0.0422,0.0523,,0.0509,0.0526
N45F,0.0657,0.0388,0.071,,0.0665,0.066,0.0576,,0.0617,,0.0563,0.0599,0.0663,0.0752,0.0668,0.061,0.0644,0.0594,0.0464
N45M,0.0627,0.0699,0.0479,,0.0622,0.0502,0.0653,0.0572,0.0629,0.0513,,0.0634,0.0526,0.0889,0.0624,0.0602,0.0884,0.0545,0.0575
N45R,0.058,0.0603,0.0584,0.0634,0.0541,0.0812,,0.0602,0.0605,0.0606,,,0.064,,0.0586,,,0.0619,
K46I,0.0536,0.0557,0.0683,0.0749,,0.0529,,0.0606,0.0331,,,0.063,0.0669,0.0573,0.0602,0.0489,0.0432,0.0673,0.0564
K46W,0.0552,0.0523,0.0537,0.053,0.055,0.0544,,0.0564,0.0527,0.0605,0.0562,0.0627,0.077,0.0497,0.0554,0.0696,,0.0579,0.0545
